The target of assay [1] is MyoD (mouse (endogenous in C2C12)) (UniProt P10085). In words: condition: only cells induced to differentiate in DM without SB (p38α active); co-IP; anti-MyoD immunoprecipitates from extracts of C2C12 cells induced to differentiate in DM without SB; western blot for KMT1A.
Assay [2] has the same target. The experiment in a line: co-IP; anti-MyoD immunoprecipitates from extracts of C2C12 cells grown in GM, or in DM with SB203580 (5 uM); western blot for KMT1A; control IgG. Background: Immunoblotting shows a protein as a band on a membrane.

By UniProt entry, the sequences of proteins in these tests, tags left out.
UniProt P10085: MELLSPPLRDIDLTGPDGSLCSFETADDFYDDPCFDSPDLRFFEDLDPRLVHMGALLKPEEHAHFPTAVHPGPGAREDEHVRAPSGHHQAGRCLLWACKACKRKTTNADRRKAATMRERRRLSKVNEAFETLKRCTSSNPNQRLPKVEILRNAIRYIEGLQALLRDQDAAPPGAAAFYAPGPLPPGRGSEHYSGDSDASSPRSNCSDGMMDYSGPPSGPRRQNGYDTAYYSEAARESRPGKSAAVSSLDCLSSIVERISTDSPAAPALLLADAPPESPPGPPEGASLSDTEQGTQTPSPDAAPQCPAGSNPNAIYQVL

No constants are given. Whether binding was seen depends on the method and setting. Binding seen in cells or lysates may run through a third protein. Some entries that bind do so weakly or less than the wild type.

These results are taken from paper PMC4993004.

B1: KMT1A (lysine methyltransferase 1A) (protein, UniProt O54864 1-412)
chain: MAENLKGCSVCCKSSWNQLQDLCRLAKLSCPALGVSKKNLYDFEVEYLCDYKKIREQEYYLVKWRGYPDSENTWEPRQNLKCIRVLKQFHKDLERELVRRHRRSKPPRHLDPNLANYLVQKAKQRRALQRWEQELNAKRSHLGRITVENEVDLDGPPRSFVYINEYRVGEGITLNQVAVGCECQDCLLAPTGGCCPGASLHKFAYNDQGQVRLKAGQPIYECNSRCCCGYDCPNRVVQKGIRYDLCIFRTNDGRGWGVRTLEKIRKNSFVMEYVGEIITSEEAERRGQIYDRQGATYLFDLDYVEDVYTVDAAYYGNISHFVNHSCDPNLQVYNVFIDNLDERLPRIAFFATRTIWAGEELTFDYNMQVDPVDMESTRMDSNFGLAGLPGSPKKRVRIECKCGTTACRKYLF
In the case of B1, the binding entry in assay [1] is given as “no binding”; in assay [2], “binds”.
